Molecular target: T1, Nck (cysteine-modified; human, residues 1-377, C139S, C232A, C266S, C340S), fluorophore-labelled (human, C139S (stands in the printed letters) | C232A (stands in the printed letters) | …, maleimide Alexa568 (imaging of association and three color imaging) or Alexa488 (FRAP) on cysteine)
T1 construct: extra N-terminal residues printed before Met1, with the only cysteine left in the chain; Nck, human, residues 1-377 with C139S, C232A, C266S, C340S; The methods tell the expression and purification for GST-Nck; that the cysteine-modified form was made the same way is surmised; also called Nck Alexa568; Nck Alexa488; source: E. coli BL21(DE3)T1R, purified; labelled with a maleimide-conjugated …
Assay: fluorescence (TIRF) microscopy of reconstituted clusters on a supported lipid bilayer; His8-p-Nephrin Alexa488 attached to a DOPC bilayer with 1% Ni2+-NTA DOGS; Nck Alexa568 and N-WASP Alexa647 added together; three color imaging of the clusters; 25 mM Hepes pH 7.5, 150 mM NaCl, 1 mM MgCl2, 1 mM BME, 0.1% BSA
Conditions: both partners purified

binding result: binds
B1: N-WASP BPVCA (rat, residues 183-193 fused to […]; basic, proline-rich and VCA regions) (domain or fragment)
chain: GSEFKEKKKGKAKKKRAPPPPPPSRGGPPPPPPPPHSSGPPPPPARGRGAPPPPPSRAPTAAPPPPPPSRPGVVVPPPPPNRMYPHPPPALPSSAPSGPPPPPPLSMAGSTAPPPPPPPPPPPGPPPPPGLPSDGDHQVPASSGNKAALLDQIREGAQLKKVEQNSRPV[about 80 residues left out here]
modifications: maleimide Alexa647 on the single cysteine (three color imaging)
notes: extra N-terminal residues as printed; N-WASP, rat, basic region; N-WASP, rat, proline-rich and VCA regions; […] are left out of the construct; also called N-WASP Alexa647; source: E. coli BL21(DE3)T1R, purified (Ni-NTA, Source 15Q, TEV, Source 15S, SD200)
